Measurements published in PubChem BioAssay AID1346428 (National Center for Advancing Translational Sciences (NCATS), 2018).
“And” between values parts separate entries of the source, which are not always exact repeats. Identical values can stand only once. About 1,200 (2.5%) of roughly 48,000 compounds were called active. Inconclusive results (about 2%) are left out.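 How the source made its calls: active means activation of at least 60% and not above a set upper limit (about 1 call in 100 departs from these limits); inconclusive means activation of 40% to 60%, or above that upper limit; inactive means activation under 40%.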 The list shows a part of the results.

These compounds were tested against Probable G-protein coupled receptor 32 (Homo sapiens) (UniProt O75388) (assay: qHTS for Agonists of Human Resolvin D1 Receptor DRV1). Conditions: CHO-K1 GPR32 beta-arrestin PathHunter luminescence, 90 min; at 76.9 µM; hits give high values; zero percent set by DMSO-only wells.
Procedure, shortened: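 GPR32 activation in stably transfected CHO-K1 cells, detected as beta-arrestin recruitment by enzyme-fragment complementation. Compound exposure: 90 min, 37 °C.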
Further: 0% is about no effect.

UniProt O75388, sequence (O75388 whole entry, looked up, the tested form may be a part): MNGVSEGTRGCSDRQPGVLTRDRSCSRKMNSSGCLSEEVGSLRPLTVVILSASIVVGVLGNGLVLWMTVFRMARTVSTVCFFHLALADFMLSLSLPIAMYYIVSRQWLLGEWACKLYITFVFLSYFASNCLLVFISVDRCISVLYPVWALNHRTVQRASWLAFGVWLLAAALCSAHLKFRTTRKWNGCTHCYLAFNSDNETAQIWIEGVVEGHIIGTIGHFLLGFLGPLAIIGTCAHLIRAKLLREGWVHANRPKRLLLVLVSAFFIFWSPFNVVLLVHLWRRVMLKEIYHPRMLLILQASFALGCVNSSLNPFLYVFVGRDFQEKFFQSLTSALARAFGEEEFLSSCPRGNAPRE

activation, inactive:
Cc1oc(-c2ccc(C(=O)NCc3ccc(Cl)cc3)cc2)nc1CS(=O)(=O)c1ccccc1 3.88%, CCn1c(=N)c(C(=O)NCc2ccccc2)cc2c(=O)n3cc(C)ccc3nc21 13.8%, CCCCNC(=O)C(Cc1ccccc1)NS(=O)(=O)c1ccc2c(c1)c(=O)n(C)c(=O)n2C (stereo unspecified) 9.67%, CC(C)c1ccc(N2C(=O)CS(=O)(=O)C23C(=O)N(Cc2cccc(F)c2)c2ccccc23)cc1 (stereo unspecified) -3.28%, CCC1CN(C(=O)NCc2ccc(C)cc2)c2ccccc2O1 (stereo unspecified) -32%, Cc1cc(C)c(OCC(=O)N(Cc2ccco2)Cc2ccco2)c(C)c1 5.18%, CCOC(=O)c1ccc(NS(=O)(=O)c2ccc(-c3cc(C)no3)cc2)cc1 -7.37%, Cc1ccc(C)c(NC(=O)c2cc(S(=O)(=O)N3CCCc4ccccc43)ccc2F)c1 -26.5%, Cc1cc2c(C(C)C)c(O)c(O)c(C=O)c2c(O)c1-c1c(C)cc2c(C(C)C)c(O)c(O)c(C=O)c2c1O -6.44% and -19.4%, COc1ccccc1CCNC(=O)c1ccc(-c2nc(CSc3ccc(C)cc3)c(C)o2)cc1 0.389%, CSc1ncc(C(=O)Nc2c(C)cccc2C)c(-c2ccccc2)n1 1.18%, Cc1nc2ccccc2c(=O)n1-c1ccc(NC(=O)c2cccc([N+](=O)[O-])c2)cc1 48.6%, COc1ccc(Cn2ccc3nc(C)c(C(=O)Nc4cc(C)cc(C)c4)cc3c2=O)cc1 -16.4%, Cc1ccccc1S(=O)(=O)Cc1ccc(C(=O)NC2CCC(C)CC2)o1 (stereo unspecified) -8.54%, CCOc1ccc(NC(=O)Cn2c(=O)n(-c3ccccc3)c(=O)c3ccc(C(=O)NCc4ccc5c(c4)OCO5)cc32)cc1 -11.5%, CCC(C)NC(=O)CSc1nc2cc3c(cc2c(=O)n1CCCCCC(=O)NCc1ccc2c(c1)OCO2)OCO3 (stereo unspecified) -6.8%, Cc1nc2nc[nH]n2c(=O)c1CCC(=O)Nc1ccc(F)cc1 -7.27%, Cc1ccc(CNC(=O)C2CCN(S(=O)(=O)c3ccc4[nH]c(=O)ccc4c3)CC2)cc1 -6.55%, CCOc1ccc(-n2ccnc2SCC(=O)Nc2nc3ccc(C)cc3s2)cc1 -4.56%, Cc1cc(-c2ccc(C)c(S(=O)(=O)NC3CCCCC3)c2)on1 -17.7%, O=C(Cn1c(=O)n(Cc2cccs2)c(=O)c2cccnc21)Nc1ccc(F)cc1 -8.98%, COc1cccc2cc(C(=O)Nc3ccc(F)c(F)c3)c(=O)oc12 -16.2%, CC1(C)C(=O)N(CC(=O)Nc2cccc(F)c2)c2ccc(S(=O)(=O)N3CCCCC3)cc21 -3.31%, Cc1nn(-c2ccccc2)c2c1N(CC(=O)N1CCN(c3ccc(F)cc3)CC1)C(=O)CS2 1.25%, CCOc1cc(-c2nnc(SCC(=O)NC3CCCC3)nc2-c2ccc(OC)c(OCC)c2)ccc1OC -29.5%, Cc1ccc(Cl)cc1-n1c(=O)c2sc3ccccc3c2n(Cc2ccccc2)c1=O 3.3%, CCCCCSc1nnc(-c2ccc(Br)cc2)o1 3.74%, Nc1ncnc(Nc2ccccc2)n1 2.15%, CC(C)CCN1C(=O)c2ccccc2CC1(C)C(=O)NC1CCC(C)CC1 (stereo unspecified) -5.08%, O=C(CSc1nccn1C1CCCC1)Nc1ccc(C(F)(F)F)cc1 -1.98%, COc1ccc(NC(=O)C2CCN(S(=O)(=O)c3ccc4[nH]c5c(c4c3)CCCCC5)CC2)cc1 -7.44%, CCOc1ccc(NC(=O)Cn2cc(S(=O)(=O)NC)c(S(=O)(=O)NC)c2)cc1 -13%, O=C(Nc1cccc(F)c1)[C@H](CSCc1ccccc1)N1Cc2ccccc2C1=O -4.41%, CC(C)c1ccc(-c2nc(C(N)=O)c3c(n2)n(-c2ccc4c(c2)OCO4)c(=O)n3C)cc1 -4.72%, CC(=O)N1CCc2nc3sc(C(=O)c4ccc(F)cc4)c(N)c3c(C(F)(F)F)c2C1 -16.9%, Cc1ccc(NC(=O)CSc2nc(=O)n(CCN3CCOCC3)c3c2CCC3)c(C)c1 -5.34%, Cc1ccc(C(=O)Nc2ccc(S(=O)(=O)N3CCC(c4nc5ccccc5s4)CC3)cc2)cc1 2.54%, Cc1ccc(OCC(=O)Nc2nnc(S(=O)(=O)N3c4ccccc4CC3C)s2)cc1 (stereo unspecified) 9.85%, Cc1ccc(NC(=O)c2nc(S(C)(=O)=O)ncc2N(Cc2ccco2)Cc2cccs2)c(C)c1 -23.6%, CCc1ccc(NC(=O)C(=O)NCC(c2cccnc2)N2CCN(c3ccc(F)cc3)CC2)cc1 (stereo unspecified) 4.21%, CC(=O)c1cccc(NC(=O)c2nc(-c3ccccc3)n(-c3cccc(Cl)c3)n2)c1 -24%, Cc1ccc(OCCCCn2nnc3sc4c(c3c2=O)CCCC4)cc1 -0.338%, Cc1nnc(N2CCC(C(=O)N3CCCCC3)CC2)c2nn(-c3ccc(Cl)cc3)c(C)c12 10.4%, CC(=O)c1cc(-c2ccccc2)n(CCC(=O)NCc2ccc(C)cc2)c1C -21%, CCc1ccc(NC(=O)Cn2c(=O)n(CCCCC(=O)NCc3ccc4c(c3)OCO4)c(=O)c3ccccc32)cc1 -6.24%, CCOc1ccccc1Nc1sc(C(=O)c2ccccc2)c(N)c1C(=O)Nc1ccccc1 -71.8%, COc1ccc(-c2noc(N(c3nc(-c4ccc(OC)c(OC)c4)no3)c3ccccc3OC)n2)cc1OC -0.772%, COc1ccc(-c2nn3c(=O)cc(CN4CCN(C(=O)c5ccc(OC)c(OC)c5)CC4)nc3s2)cc1 -11.1%, CCOc1ccccc1CNc1ccc2cc(S(=O)(=O)N3CCC(C)CC3)ccc2n1 -7.67%, CC(C)(C)c1ccc(C(=O)Nc2ccc3c(c2)CCCN3C(=O)c2cccs2)cc1 -3.07%, CCOc1ccccc1NC(=O)c1ccc2c(Cl)c3c(nc2c1)CCC3 26%, COc1cc(NC(=O)CN2c3ccccc3S(=O)(=O)c3ccccc32)cc(OC)c1 -6.31%, CCCC(O)c1nc2ccccc2n1Cc1ccccc1OC (stereo unspecified) 24.1%, CCC1CN(C(=O)N2CCC(C(=O)NCCc3ccccc3Cl)CC2)c2cc(C)ccc2O1 (stereo unspecified) -15.2%, Cc1ccc(Nc2nnc(-c3ccc(C)c(S(=O)(=O)N4CCN(C)CC4)c3)c3ccccc23)cc1 9.13%, CCOCCCn1c(SCC(=O)OCC)nc2c(sc3ccccc32)c1=O 1.88%, COCCNC(=O)CSc1nc(-c2cc(OC)c(OC)c(OC)c2)[nH]c1-c1ccc(Cl)cc1 -22%, Cc1cccc(C(C)C)c1NC(=O)C1CCCN1S(=O)(=O)c1cccc2nsnc12 (stereo unspecified) -10.2%, Cc1ccc(C(=O)CSc2nc(-c3ccccc3)nc3c2CCCC3)c(C)c1 -10.7%, COc1ccc(CCNC(=O)C2CCC(CNS(=O)(=O)c3ccc(C)cc3)CC2)cc1OC (stereo unspecified) 0.268%, CNC(=O)C1CCC(Cn2c(=O)c3sccc3n(CC(=O)Nc3ccc(C)c(C)c3)c2=O)CC1 (stereo unspecified) -8.71%, O=S(=O)(c1ccccc1)c1nnn2c1nc(NC1CCCCC1)c1sccc12 2.28%, CCCCn1cc(S(=O)(=O)c2ccc(OC)cc2)c(=O)c2cc(CC)ccc21 -19.5%, Nc1ncnc2c1nc(Sc1ccc(Cl)cc1)n2[C@H]1OC2COP(=O)(O)O[C@@H]2C1O (stereo partly specified) 4.87%, CCc1ccc(NC(=O)CN(c2ccc(C)cc2)S(=O)(=O)c2cccs2)cc1 -2.83%, COc1ccc(-c2cc(C)no2)cc1S(=O)(=O)N1CCc2ccccc21 -18.5%, Cn1c(=O)c2c(SCC(=O)Nc3ccccc3C(F)(F)F)nc(C3CCCC3)nc2n(C)c1=O 4.46%, Cc1ccc(Cl)cc1NC(=O)Nc1nnc(N(C)Cc2ccccc2)s1 -18.4%, O=C(O)CCCCn1c(SCC(=O)Nc2ccccc2C(F)(F)F)nc2ccsc2c1=O -17.4%, Cc1ccc(CN(C(=O)c2ccccc2)c2ccccn2)o1 -5.25%, O=C(Nc1cccc(C(=O)N2CCN(c3cccc(Cl)c3)CC2)c1)c1nsc2ccccc12 -13.1%, COc1cc(OC)c(NC(=O)c2nn(-c3ccc(C)cc3)c(=O)c3c2c2ccccc2n3C)cc1Cl -1.46%, Cc1ccccc1Cn1c2ccccc2c2cnn(CC(=O)NCC(C)c3ccccc3)c(=O)c21 (stereo unspecified) -8.18%, Cc1c(C)n(Cc2ccccc2)c2ccc(C(=O)OCCN(C)C)cc12 5.2%, CCc1ccccc1NC(=O)c1ccc2c(SCC(=O)O)c3c(nc2c1)CCC3 -1.48%, O=C(NCc1ccccc1Cl)c1ccc(Cn2c(SCc3ccccc3)nc3cccnc32)cc1 -4.83%, CCOC(=O)C1CCN(C(=O)c2ccc(NC(=O)c3nsc4ccccc34)cc2)CC1 -4.36%, CSc1ccc(CCNC(=O)C(C)n2nc(C)c3sc4ccccc4c3c2=O)cc1 (stereo unspecified) -9.76%, CCOc1ccc(C2c3c(oc4ccc(C)cc4c3=O)C(=O)N2CCCN(C)C)cc1 (stereo unspecified) -6.48%, O=C(CCn1ccc2cc(S(=O)(=O)N3CCCC3)ccc21)NCc1cccc(Cl)c1 10.5%, CC(=O)N1c2ccc(S(=O)(=O)NCC3CCC(C(=O)Nc4ccc(C)c(C)c4)CC3)cc2CC1C (stereo unspecified) -7.5%
